The values below come from PMC4242493.

Some of the results follow. The list includes weakly bound sequences.

For this assay, the target named is MaxL homodimer (UniProt P61244). Kind of assay: universal protein-binding microarray (PBM). As to conditions: PBS-based mixture, 10 nM His-tagged protein dimer, 2% milk, 200 ng/uL BSA, 50 ng/uL salmon testes DNA, 0.02% TX-100; detection with Alexa 488 anti-His …; high values mean tight binding; most listed sequences are background and not binding sites; double strand, one strand shown.
Chain of UniProt P61244 (P61244 whole entry): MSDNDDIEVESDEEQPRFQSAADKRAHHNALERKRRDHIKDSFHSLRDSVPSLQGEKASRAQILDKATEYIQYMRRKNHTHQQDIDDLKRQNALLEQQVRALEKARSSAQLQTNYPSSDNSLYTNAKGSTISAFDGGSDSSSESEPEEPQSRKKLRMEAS
In the case of TCAATCAA, the binding signal (normalized occupancy) was 0.0799.

On to AGATTAAT, for which the binding signal (normalized occupancy) was determined as 0.078.

Turning to CAGCCAAA, the binding signal (normalized occupancy) turned out to be 0.0719.

ACTATCCG: the binding signal (normalized occupancy) amounted to 0.0731.

For the sequence ATCTGTGC, the binding signal (normalized occupancy) worked out at 0.0792.

Consider CGGCATTC, for which the binding signal (normalized occupancy) came to 0.0756.

As for TAACCTGA, the binding signal (normalized occupancy) came out at 0.0789.

As to CAGCAGGG, the binding signal (normalized occupancy) is 0.0786.

For TGCGTCCA, the binding signal (normalized occupancy) is 0.0781.

In the case of AAAGCGAT, the binding signal (normalized occupancy) stood at 0.0684.

As for CGACAATC, the binding signal (normalized occupancy) turned out to be 0.0719.

With AAATTTTC, the binding signal (normalized occupancy) was 0.0678.

On to CTAATGAC, for which the binding signal (normalized occupancy) came to 0.0773.

For the sequence AAAGCGCT, the binding signal (normalized occupancy) worked out at 0.0654.

As to GGAGTGGA, the binding signal (normalized occupancy) came out at 0.0751.

For the sequence AGTCACCG, the binding signal (normalized occupancy) was 0.0724.

Consider AATCCTAG, for which the binding signal (normalized occupancy) came to 0.072.

Turning to CACCGACC, the binding signal (normalized occupancy) stood at 0.0761.

For ACTTTCGA, the binding signal (normalized occupancy) turned out to be 0.0725.

Turning to GCACCGGA, the binding signal (normalized occupancy) amounted to 0.0685.

Consider GTTAATGA, for which the binding signal (normalized occupancy) was 0.0786.

Regarding TCCGTTAA, the binding signal (normalized occupancy) was 0.0746.

Turning to ATTATGAA, the binding signal (normalized occupancy) was found to be 0.0779.

Consider ACTAACCT, for which the binding signal (normalized occupancy) is 0.0752.

For ATAGCTAC, the binding signal (normalized occupancy) was determined as 0.0782.

Regarding ATCCATGC, the binding signal (normalized occupancy) was 0.0942.

ACTTAACA: the binding signal (normalized occupancy) came to 0.0749.

In the case of AATTGCAG, the binding signal (normalized occupancy) worked out at 0.0723.

Consider TGCGTAAA, for which the binding signal (normalized occupancy) was 0.0792.

GGGTCAAA: the binding signal (normalized occupancy) came to 0.0886.

For the sequence ACCGAATG, the binding signal (normalized occupancy) was 0.0811.

With GGTTGGAC, the binding signal (normalized occupancy) is 0.0689.

As to AATGAAAA, the binding signal (normalized occupancy) amounted to 0.0755.

Take CAGCGTTA: the binding signal (normalized occupancy) came to 0.0808.

Take AACCTTCG: the binding signal (normalized occupancy) amounted to 0.068.

Consider GGGCGCCA, for which the binding signal (normalized occupancy) was determined as 0.0745.

GGAAAGAC: the binding signal (normalized occupancy) was 0.0735.

Consider AAAACTGC, for which the binding signal (normalized occupancy) amounted to 0.0757.

Take ATATTTTC: the binding signal (normalized occupancy) is 0.0837.

Turning to CAGATATA, the binding signal (normalized occupancy) was found to be 0.081.

On to GGGGCTGA, for which the binding signal (normalized occupancy) is 0.0775.

As to TTACATAA, the binding signal (normalized occupancy) is 0.0775.

Take ACCAAGTG: the binding signal (normalized occupancy) was 0.0737.

As for CTGTCTGA, the binding signal (normalized occupancy) is 0.074.

Consider CACACGTC, for which the binding signal (normalized occupancy) was 0.0858.

As for CCCCTGCA, the binding signal (normalized occupancy) was 0.0799.

In the case of ACGTTCCC, the binding signal (normalized occupancy) is 0.0819.

As to CGCGGTTC, the binding signal (normalized occupancy) worked out at 0.0675.

As to CATGTGTA, the binding signal (normalized occupancy) turned out to be 0.131.

Regarding ACTTCTAG, the binding signal (normalized occupancy) stood at 0.0738.

Consider GAGTACCA, for which the binding signal (normalized occupancy) came out at 0.0692.

For AGTATGAG, the binding signal (normalized occupancy) turned out to be 0.0766.

For AATGTCAA, the binding signal (normalized occupancy) came to 0.0742.

As for AGATTACA, the binding signal (normalized occupancy) stood at 0.0748.

TAAATTGA: the binding signal (normalized occupancy) was 0.0794.

ATATCGAC: the binding signal (normalized occupancy) amounted to 0.0799.

On to CAGCACTA, for which the binding signal (normalized occupancy) was determined as 0.075.

For GGGAGACA, the binding signal (normalized occupancy) worked out at 0.0731.

For CTAAATAA, the binding signal (normalized occupancy) stood at 0.0764.

As to ATAGCTGA, the binding signal (normalized occupancy) was 0.0721.

With CGAAAAGA, the binding signal (normalized occupancy) was 0.0756.

Take CTTGTACA: the binding signal (normalized occupancy) came to 0.0753.

With GATATTGC, the binding signal (normalized occupancy) is 0.0822.

Consider ACAGTGGA, for which the binding signal (normalized occupancy) was 0.0794.

TCGACTCA: the binding signal (normalized occupancy) came to 0.0737.

Consider AAAAACAT, for which the binding signal (normalized occupancy) was 0.0797.

For AAGTTGGA, the binding signal (normalized occupancy) came to 0.0711.

Turning to ATTCCAAG, the binding signal (normalized occupancy) was determined as 0.0723.

CACAGCAG: the binding signal (normalized occupancy) came to 0.0738.

On to ACCCGGAC, for which the binding signal (normalized occupancy) is 0.0711.

With ACGTCCCA, the binding signal (normalized occupancy) stood at 0.0785.

On to CTCCAAGA, for which the binding signal (normalized occupancy) turned out to be 0.0679.

In the case of AGACACTA, the binding signal (normalized occupancy) amounted to 0.0759.

As for AGCTTTAT, the binding signal (normalized occupancy) worked out at 0.0716.

CCTGCCAA: the binding signal (normalized occupancy) amounted to 0.0763.

As for ACACAATA, the binding signal (normalized occupancy) was 0.0815.

Turning to TCCATAAA, the binding signal (normalized occupancy) amounted to 0.0777.

For ATATACAC, the binding signal (normalized occupancy) came to 0.0871.

As to AAAGCGTA, the binding signal (normalized occupancy) was determined as 0.0701.

For the sequence CAACCGAG, the binding signal (normalized occupancy) was determined as 0.0678.

On to GAGTAATC, for which the binding signal (normalized occupancy) came out at 0.0716.

Turning to CTCTACTC, the binding signal (normalized occupancy) was determined as 0.0747.

For AAGTTTGG, the binding signal (normalized occupancy) was determined as 0.0676.

On to AGCGGTAC, for which the binding signal (normalized occupancy) stood at 0.0717.

For ATGCCGTA, the binding signal (normalized occupancy) was found to be 0.0815.

Take ACTCATCG: the binding signal (normalized occupancy) turned out to be 0.0807.

On to CAATTGCC, for which the binding signal (normalized occupancy) amounted to 0.0739.

On to ACTCTTGG, for which the binding signal (normalized occupancy) stood at 0.0728.

In the case of AGGAGCGC, the binding signal (normalized occupancy) is 0.0659.

As to ATTAGTGC, the binding signal (normalized occupancy) is 0.0733.

For CGGCGCCC, the binding signal (normalized occupancy) amounted to 0.068.

With ACGTATAA, the binding signal (normalized occupancy) worked out at 0.0801.

On to CCATGAAC, for which the binding signal (normalized occupancy) worked out at 0.0797.

Take GCGTTGCA: the binding signal (normalized occupancy) stood at 0.078.

AAGGCCGC: the binding signal (normalized occupancy) was found to be 0.0666.

As for ACTGGCAC, the binding signal (normalized occupancy) turned out to be 0.0774.

As to GTTTGACA, the binding signal (normalized occupancy) was 0.0782.

For AATAAACA, the binding signal (normalized occupancy) came to 0.0842.

CGTGCTAC: the binding signal (normalized occupancy) came to 0.0907.

As for AAGTCCCC, the binding signal (normalized occupancy) stood at 0.0759.

In the case of CGTGTAGC, the binding signal (normalized occupancy) came out at 0.0837.

In the case of CTTAGAAG, the binding signal (normalized occupancy) was determined as 0.0745.

For ATCTTTCA, the binding signal (normalized occupancy) worked out at 0.0831.

With CTGCCGGC, the binding signal (normalized occupancy) is 0.0638.

Consider CAGGGCCC, for which the binding signal (normalized occupancy) is 0.0698.

For the sequence ATGCCCGA, the binding signal (normalized occupancy) came to 0.0773.

For GGTGGCCA, the binding signal (normalized occupancy) was determined as 0.0813.

Take ACGTGGTG: the binding signal (normalized occupancy) is 0.1.

As to ACCGTTTA, the binding signal (normalized occupancy) was 0.0784.

As for CCCGTCCC, the binding signal (normalized occupancy) was 0.0747.

Regarding GCACCGGC, the binding signal (normalized occupancy) turned out to be 0.0755.

Turning to ATCAAAGA, the binding signal (normalized occupancy) was found to be 0.0692.

With CAAGTCAA, the binding signal (normalized occupancy) turned out to be 0.0782.

On to ATCCCCCA, for which the binding signal (normalized occupancy) was found to be 0.0884.

For the sequence ATTTTGCA, the binding signal (normalized occupancy) was 0.0753.

With ACGGCCGC, the binding signal (normalized occupancy) was found to be 0.0677.

In the case of CTGGTATA, the binding signal (normalized occupancy) was determined as 0.0774.

ATGAGATG: the binding signal (normalized occupancy) amounted to 0.094.

Turning to CCATAATA, the binding signal (normalized occupancy) is 0.0816.

On to GAGACTCA, for which the binding signal (normalized occupancy) was determined as 0.0747.

Consider CGGCAGGC, for which the binding signal (normalized occupancy) is 0.0662.

On to ACACTTAT, for which the binding signal (normalized occupancy) turned out to be 0.0794.

For the sequence AATCGGAG, the binding signal (normalized occupancy) turned out to be 0.0688.

In the case of CAAGGCTC, the binding signal (normalized occupancy) was found to be 0.0708.

In the case of GATGACGA, the binding signal (normalized occupancy) was found to be 0.0823.

For the sequence ATCAGGAA, the binding signal (normalized occupancy) stood at 0.0731.

In the case of ATGGTTTG, the binding signal (normalized occupancy) amounted to 0.0776.

In the case of AGGTGTCC, the binding signal (normalized occupancy) amounted to 0.0751.

As to AGGTTACA, the binding signal (normalized occupancy) is 0.0739.

Regarding GTCCTGTA, the binding signal (normalized occupancy) amounted to 0.0738.

AAAACCAA: the binding signal (normalized occupancy) is 0.0747.

Consider GTTGCTAA, for which the binding signal (normalized occupancy) came out at 0.0758.

As for ACAAAGAG, the binding signal (normalized occupancy) came to 0.0758.

In the case of GGGCGTTA, the binding signal (normalized occupancy) was 0.0774.

With ATACACTG, the binding signal (normalized occupancy) is 0.0795.

For the sequence GCTCAATA, the binding signal (normalized occupancy) was found to be 0.0723.

As for CGGTGCGA, the binding signal (normalized occupancy) was found to be 0.0686.

Regarding CTCAAGCA, the binding signal (normalized occupancy) was 0.0708.

For the sequence AAGTGCTG, the binding signal (normalized occupancy) came out at 0.0716.

GAATTTTA: the binding signal (normalized occupancy) stood at 0.0753.

Take CTCTCGTA: the binding signal (normalized occupancy) stood at 0.0718.

For GAGCCTAC, the binding signal (normalized occupancy) was 0.0709.

Turning to GCAATGGA, the binding signal (normalized occupancy) worked out at 0.0742.

ATCTAGAC: the binding signal (normalized occupancy) was determined as 0.0737.

Regarding ATTGGCGA, the binding signal (normalized occupancy) was 0.0813.

GGGATTTA: the binding signal (normalized occupancy) amounted to 0.0743.

For the sequence GGCCGAAA, the binding signal (normalized occupancy) came to 0.067.

Turning to CCCTGACC, the binding signal (normalized occupancy) stood at 0.0748.

ACGGATAT: the binding signal (normalized occupancy) was 0.0773.

For the sequence CTCTTGGA, the binding signal (normalized occupancy) came to 0.0683.

For AGTAGTAG, the binding signal (normalized occupancy) turned out to be 0.0786.

For CTCATTAC, the binding signal (normalized occupancy) came out at 0.0827.

As to TACTTCTA, the binding signal (normalized occupancy) was found to be 0.0754.

AATGCAGT: the binding signal (normalized occupancy) worked out at 0.0781.

As to AGTAAACT, the binding signal (normalized occupancy) stood at 0.073.

On to AAGATTGA, for which the binding signal (normalized occupancy) is 0.0771.

As to ACTACGGC, the binding signal (normalized occupancy) was determined as 0.0697.

In the case of CGATTGCC, the binding signal (normalized occupancy) came out at 0.0718.

As for ACCTTCTC, the binding signal (normalized occupancy) came out at 0.0716.

On to AGGGTCTA, for which the binding signal (normalized occupancy) was found to be 0.0705.

Consider GCATTACA, for which the binding signal (normalized occupancy) was found to be 0.0804.

Take GCGTAAAA: the binding signal (normalized occupancy) stood at 0.0713.

For the sequence AATTGTGA, the binding signal (normalized occupancy) was 0.0766.

For TGGGACCA, the binding signal (normalized occupancy) amounted to 0.0798.

Regarding GCCACATA, the binding signal (normalized occupancy) came to 0.0776.

As to GTCCGGCA, the binding signal (normalized occupancy) was found to be 0.0705.

TGGCACAA: the binding signal (normalized occupancy) came to 0.0776.

Consider GGGTTGGA, for which the binding signal (normalized occupancy) is 0.071.

For AGTTATTC, the binding signal (normalized occupancy) worked out at 0.0805.

Regarding AGCATGCC, the binding signal (normalized occupancy) came out at 0.112.

Consider ATCGGCCA, for which the binding signal (normalized occupancy) amounted to 0.0714.

As to ACAAACGT, the binding signal (normalized occupancy) is 0.0788.
